# PMC9911399, “Two distinct binding modes provide the RNA-binding protein RbFox with extraordinary sequence specificity”
# Substitutions are numbered along the chain they refer to; changes in the protein carry UniProt numbers. The list shows a part of the results.
# B1: UGUUCAU (DNA:RNA)
# RNA: GGGAGACCGGAAUUCAGAUUGUCCUGUUCAUUUAAAUCCCGUCGUAGCCACCA
# DNA 1: CAATCTGAATTCCGGTCTCCC
# DNA 2: TGGTGGCTACGACGGGATT
# B2: UGGUACA (DNA:RNA)
# RNA: B1 RNA with U27G, C29A, A30C, U31A
# DNA 1: CAATCTGAATTCCGGTCTCCC
# DNA 2: TGGTGGCTACGACGGGATT
# B3: AACUUAG (DNA:RNA)
# RNA: B1 RNA with U25A, G26A, U27C, C29U, U31G
# DNA 1: CAATCTGAATTCCGGTCTCCC
# DNA 2: TGGTGGCTACGACGGGATT
# B4: AAGUAUA (DNA:RNA)
# RNA: B1 RNA with U25A, G26A, U27G, C29A, A30U, U31A
# DNA 1: CAATCTGAATTCCGGTCTCCC
# DNA 2: TGGTGGCTACGACGGGATT
# B5: AACGCAU (DNA:RNA)
# RNA: B1 RNA with U25A, G26A, U27C, U28G
# DNA 1: CAATCTGAATTCCGGTCTCCC
# DNA 2: TGGTGGCTACGACGGGATT
# B6: CCUCUGC (DNA:RNA)
# RNA: B1 RNA with U25C, G26C, U28C, C29U, A30G, U31C
# DNA 1: CAATCTGAATTCCGGTCTCCC
# DNA 2: TGGTGGCTACGACGGGATT
# B7: UACAAUU (DNA:RNA)
# RNA: B1 RNA with G26A, U27C, U28A, C29A, A30U
# DNA 1: CAATCTGAATTCCGGTCTCCC
# DNA 2: TGGTGGCTACGACGGGATT
# B8: AAUAGUU (DNA:RNA)
# RNA: B1 RNA with U25A, G26A, U28A, C29G, A30U
# DNA 1: CAATCTGAATTCCGGTCTCCC
# DNA 2: TGGTGGCTACGACGGGATT
# B9: CCUAAAU (DNA:RNA)
# RNA: B1 RNA with U25C, G26C, U28A, C29A
# DNA 1: CAATCTGAATTCCGGTCTCCC
# DNA 2: TGGTGGCTACGACGGGATT
# B10: GAGAACG (DNA:RNA)
# RNA: GGGAGACCGGAAUUCAGAUUGUCCGAGAACGUUAAAUCCCGUCGUAGCCACCA
# DNA 1: CAATCTGAATTCCGGTCTCCC
# DNA 2: TGGTGGCTACGACGGGATT
# B11: UCGUGUG (DNA:RNA)
# RNA: B10 RNA with G25U, A26C, A28U, A29G, C30U
# DNA 1: CAATCTGAATTCCGGTCTCCC
# DNA 2: TGGTGGCTACGACGGGATT
# B12: UCGCUCG (DNA:RNA)
# RNA: B10 RNA with G25U, A26C, A28C, A29U
# DNA 1: CAATCTGAATTCCGGTCTCCC
# DNA 2: TGGTGGCTACGACGGGATT
# B13: GCUUCUC (DNA:RNA)
# RNA: B1 RNA with U25G, G26C, A30U, U31C
# DNA 1: CAATCTGAATTCCGGTCTCCC
# DNA 2: TGGTGGCTACGACGGGATT
# B14: GUAGUAA (DNA:RNA)
# RNA: B10 RNA with A26U, G27A, A28G, A29U, C30A, G31A
# DNA 1: CAATCTGAATTCCGGTCTCCC
# DNA 2: TGGTGGCTACGACGGGATT
# B15: AUAAGUA (DNA:RNA)
# RNA: B10 RNA with G25A, A26U, G27A, A29G, C30U, G31A
# DNA 1: CAATCTGAATTCCGGTCTCCC
# DNA 2: TGGTGGCTACGACGGGATT
# B16: CAAAUGC (DNA:RNA)
# RNA: B10 RNA with G25C, G27A, A29U, C30G, G31C
# DNA 1: CAATCTGAATTCCGGTCTCCC
# DNA 2: TGGTGGCTACGACGGGATT
# B17: AGAGGCC (DNA:RNA)
# RNA: B10 RNA with G25A, A26G, G27A, A28G, A29G, G31C
# DNA 1: CAATCTGAATTCCGGTCTCCC
# DNA 2: TGGTGGCTACGACGGGATT
# B18: CAACAAC (DNA:RNA)
# RNA: B10 RNA with G25C, G27A, A28C, C30A, G31C
# DNA 1: CAATCTGAATTCCGGTCTCCC
# DNA 2: TGGTGGCTACGACGGGATT
# B19: AUGUUGC (DNA:RNA)
# RNA: B10 RNA with G25A, A26U, A28U, A29U, C30G, G31C
# DNA 1: CAATCTGAATTCCGGTCTCCC
# DNA 2: TGGTGGCTACGACGGGATT
# B20: UUGUUAU (DNA:RNA)
# RNA: B1 RNA with G26U, U27G, C29U
# DNA 1: CAATCTGAATTCCGGTCTCCC
# DNA 2: TGGTGGCTACGACGGGATT
# Target: T1, RBFOX1 RRM RbFoxmut (Fox-RRM*) (Homo sapiens, UniProt Q9NWB1 109-208, R118D;E147R;N151S;E152T)
# T1 sequence: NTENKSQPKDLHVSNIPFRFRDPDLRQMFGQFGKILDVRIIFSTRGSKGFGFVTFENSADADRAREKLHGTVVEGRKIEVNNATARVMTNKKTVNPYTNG
# Test: EMSA; HiTS-Eq, 1 nM pool, 10 min; buffer printed only for the single-RNA assays: 10 mM Tris pH 7.5, 150 mM NaCl, 3.4 mM EDTA, 0.001% NP-40, 30 C
# Conditions: tags: His6 N-terminal (pET28a); label: 5' 32P
# Method in brief: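 Purified RbFox RRM (wild type or mutant) was equilibrated for 10 min in 50 µL with 1 nM of a 5′-radiolabelled pool of RNA with 7 randomized nucleotides, its flanks annealed to DNA oligonucleotides, across increasing protein concentrations. Free RNA was separated by 8% native PAGE, excised, reverse-transcribed, PCR-barcoded and sequenced on an Illumina HiSeq 2500. Relative association constants came from read-count changes of each variant against the control reaction, normalised to the cognate motif.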
row,Binder,binding signal
1,B1,0.117 KA relative to UGCAUGU
2,B2,0.107 KA relative to UGCAUGU
3,B3,0.102 KA relative to UGCAUGU
4,B4,0.191 KA relative to UGCAUGU
5,B5,0.104 KA relative to UGCAUGU
6,B6,0.0985 KA relative to UGCAUGU
7,B7,0.0539 KA relative to UGCAUGU
8,B8,0.106 KA relative to UGCAUGU
9,B9,0.0638 KA relative to UGCAUGU
10,B10,0.347 KA relative to UGCAUGU
11,B11,0.2 KA relative to UGCAUGU
12,B12,0.148 KA relative to UGCAUGU
13,B13,0.0727 KA relative to UGCAUGU
14,B14,0.126 KA relative to UGCAUGU
15,B15,0.149 KA relative to UGCAUGU
16,B16,0.0743 KA relative to UGCAUGU
17,B17,0.143 KA relative to UGCAUGU
18,B18,0.0578 KA relative to UGCAUGU
19,B19,0.162 KA relative to UGCAUGU
20,B20,0.184 KA relative to UGCAUGU
